Test results from PubChem BioAssay AID686979 (National Center for Advancing Translational Sciences (NCATS), 2013).
About 50,000 (12%) of roughly 420,000 compounds were called active. Inconclusive results, whose numbers are uncertain, are shown with a selection of clear calls. The call rests on the fitted dose curve; in most records, active means well fitted inhibition curve with a large enough effect; inconclusive means small, poorly fitted or top-dose-only effect; inactive means flat fitted curve, though single readings scatter. Potencies of inconclusive entries are left out as doubtful fits.

Experiment: qHTS for Inhibitors of human tyrosyl-DNA phosphodiesterase 1 (TDP1): qHTS in cells in presence of CPT; further: nearly all actives have a fitted effect of over 55% in size
Conditions: chicken DT40 Tdp1-/-;hTDP1 cells + 20 nM CPT, ATP luminescence, 48 h; activity change, negative = growth inhibition: at 46.2 µM (top of the series)
How it was run: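 Cell growth measured by CellTiter-Glo luminescence after a minimum 48 h, 37 C compound exposure with 20 nM CPT in Tdp1-knockout DT40 cells stably expressing hTDP1, seeded 400/well; qHTS titration format.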
On the % scale 0 is the no-effect control and ±100 the full control effect; potency means the concentration at half of the fitted maximal effect; tags describe the fitted curve by direction and shape.

Structure (SMILES) | activity change, negative = growth inhibition | Potency
Cc1ccc(CN2CCN(Cc3cccc(OCCO)c3)CC2CCO)o1 (configuration not stated) | inactive: 14.1% | –
NS(=O)(=O)c1ccc(S(=O)(=O)N2CCCC(c3ccccc3)C2)cc1 (configuration not stated) | – | inconclusive [inhibitor, single point]
COc1ccc(C2c3c(oc4ccccc4c3=O)C(=O)N2CCCN2CCOCC2)cc1 (configuration not stated) | – | inconclusive [inhibitor, single point]
COCCCNc1nc2ccccc2nc1NS(=O)(=O)c1cccc(Cl)c1 | – | inconclusive [inhibitor, single point]
FC(F)(F)c1ccc(-c2cccc3c2C2CC3CCN2Cc2ccccc2)cc1 (configuration not stated) | – | inconclusive [inhibitor, single point]
COc1ccc(CN(C)C(=O)c2cc(-c3ccc(OC)c(OC)c3)nc3ccccc23)c(OC)c1 | – | active: 16.4 µM
Cc1ccc(S(=O)(=O)/N=C2/NC(=O)/C(=C\c3ccccc3)S2)cc1 | – | inconclusive [inhibitor, single point]
Cc1cccc(N2CCN(C(=O)C3CCCN(S(=O)(=O)c4c(C)noc4C)C3)CC2)c1C (configuration not stated) | – | active: 23.1 µM
CC(=O)N(CCN(C)C)c1nc2cc3c(cc2s1)OCCO3 | inactive: 4.82% | –
O=C(COC(=O)c1ccc([N+](=O)[O-])o1)Nc1ncc(Cl)cc1Cl | inactive: -18.5% | –
COc1ccccc1CCNC(=O)CCc1c(C)c2cc3c(C)coc3c(C)c2oc1=O | – | inconclusive [inhibitor, single point]
CCCCCCCCCCCC[n+]1ccc2ccccc2c1 | – | active: 0.531 µM
O=C(CN1C(=O)c2cccnc2Oc2ccc(Cl)cc21)Nc1ccc(F)cc1 | inconclusive: -32.6% [inhibitor] | –
CCOc1ccc(S(=O)(=O)N2CCN(S(=O)(=O)c3ccc(C)c(C)c3)CC2)cc1 | inactive: 0.653% | –
CCC(=O)N(C)C[C@@H]1Oc2cc(Br)ccc2S(=O)(=O)N([C@@H](C)CO)C[C@@H]1C | inactive: 2.96% | –
Cc1ccccc1NC(=O)Cc1nc(COC(=O)c2cccc(O)c2)cs1 | – | inconclusive [inhibitor, single point]
[2H]c1c([2H])c([2H])c(C(=O)c2sc(N3CCCCCC3)nc2-c2ccccc2)c([2H])c1[2H] | – | inconclusive [inhibitor, single point]
CC(C)CNC(=O)c1nc(-c2ccccc2)n(-c2ccccc2)n1 | – | inconclusive [inhibitor, single point]
Cc1nn2c(NCCCN(C)C)c3c(nc2c1-c1ccccc1)CCCC3 | – | inconclusive [inhibitor, single point]
COc1ccccc1CCCNC(=O)C1CCC(=O)N(Cc2ccccc2F)C1 (configuration not stated) | – | inconclusive [inhibitor, single point]
COc1ccccc1CNS(=O)(=O)c1ccc(S(=O)(=O)NC2CC2)cc1 | inactive: 3.1% | –
CC1CN(CC(=O)Nc2cc(S(=O)(=O)N3CCCC3)ccc2Cl)CC(C)O1 (configuration not stated) | inactive: -22.2% | –
CC(=O)c1cccc(N2C(=NC(=O)COc3ccccc3)SC3CS(=O)(=O)CC32)c1 (configuration not stated) | – | inconclusive [inhibitor, single point]
CCCn1nc(C(=O)OCC(=O)c2c(N)n(C)c(=O)n(C)c2=O)c2ccccc2c1=O | inactive: -3.56% | –

Structure (SMILES) | activity change, negative = growth inhibition | Potency
Cc1cccnc1CN1CCN(C(=O)c2cc(COc3ccc4ncccc4c3)on2)CC1 | – | active: 5.8 µM
COc1cc(OC)cc(C(=O)NNC(=O)CCc2nc3ccccc3c(=O)[nH]2)c1 | inactive: 4.21% | –
CN(C)S(=O)(=O)N(CC(=O)N1CCN(Cc2ccccc2)CC1)c1ccccc1 | inconclusive: -32.7% [inhibitor] | –
Nc1nc2c(Cl)ccc(Cl)c2s1 | inactive: 5.25% | –
Cc1ccc(-c2c[n+](Cc3ccc(Cl)cc3)c3n2CCC3)cc1 | – | active: 4.11 µM
O=C(Cn1c(=O)n(Cc2ccco2)c(=O)c2oc3ccccc3c21)Nc1ccc(F)cc1F | – | inconclusive [inhibitor, single point]
CCCCNC(=O)c1onc(CSc2nc3ccccc3[nH]2)c1C(=O)NCCCC | – | inconclusive [inhibitor, single point]
CCOc1cc(C(=O)OCC(=O)c2c[nH]c3ccccc23)ccc1OCC(=O)N1CCOCC1 | – | inconclusive [inhibitor, single point]
CC1=C(C#N)C(Nc2ccc(Cl)cn2)(C(F)(F)F)C(=O)N1 (configuration not stated) | inactive: -7.24% | –
CN(C)S(=O)(=O)c1cccc(NC(=O)c2ccc(-n3cncn3)c([N+](=O)[O-])c2)c1 | – | inconclusive [inhibitor, single point]
CCC(Sc1nnc(C)n2c1cc1occc12)C(=O)Nc1ccccc1F (configuration not stated) | – | active: 20.6 µM
O=C(Nc1ccccc1N1CCCC1)C1CCCO1 (configuration not stated) | inactive: 0.145% | –
COc1ccc(-c2cccc3c2C2CC3CCN2C(=O)OCc2ccccc2)cc1 (configuration not stated) | – | inconclusive [inhibitor, single point]
c1ccc(C[C@H]2CN=C(Nc3ccccc3)N2CC2CCCCC2)cc1 | – | active: 16.4 µM
COc1ccc(Nc2nc3ccccc3nc2C)cc1 | – | inconclusive [inhibitor, partial curve]
NS(=O)(=O)c1ccc(NC(=O)Nc2ccc(C(F)(F)F)cc2)cc1 | – | inconclusive [inhibitor, single point]
COC(=O)C1=C(C)N(Cc2ccccc2)C(=NCc2cc(OC)c(OC)c(OC)c2)N[C@H]1c1ccc(Br)cc1 | – | active: 13 µM
COc1ccc(CN2CCN(C(=O)c3ccco3)CC2)c(OC)c1OC | inactive: -2.95% | –
O=C1CC2(CCN(C(=O)c3ccc([N+](=O)[O-])cc3)CC2)Oc2ccccc21 | inconclusive: -35.5% [inhibitor] | –
Cc1ccc2c(c1)C(SCC(=O)NCCc1ccccc1)CC1(CCCC1)O2 (configuration not stated) | – | inconclusive [inhibitor, single point]
Cn1cc(Br)c(C(=O)n2cc(Br)cn2)n1 | inconclusive: -33.3% [inhibitor] | –
CCN1CCN(C(c2cccnc2)c2c(NC(=O)c3ccco3)sc(C)c2C)CC1 (configuration not stated) | – | active: 16.4 µM
COc1ccc(-c2nn(C)c(=O)c3ccccc23)cc1NC(=O)Cn1nc(-c2ccccc2)c2ccccc2c1=O | – | inconclusive [inhibitor, single point]
NC1=NC(=O)/C(=C\c2ccc(-c3ccc(Cl)cc3)o2)S1 | – | inconclusive [inhibitor, single point]

Structure (SMILES) | activity change, negative = growth inhibition | Potency
COc1ccc(C(CCNCc2ccc(OC(C)C)cc2)C(C)C)cc1 (configuration not stated) | – | active: 4.61 µM
Cn1c(=O)n(C)c2cc(NS(=O)(=O)c3ccccc3)c(NCc3ccccc3)cc21 | – | active: 14.6 µM
Cc1cc(=O)n2[nH]c(N)c(N=Nc3ccccc3)c2n1 | – | inconclusive [inhibitor, single point]
C/C(=N\Nc1nc(N2CCCCC2)nc(N2CCOCC2)n1)c1ccccc1O | – | inconclusive [inhibitor, single point]
CN1CCC(N(C)S(=O)(=O)c2ccc(NC(=O)COc3cccc(Cl)c3)cc2)CC1 | – | inconclusive [inhibitor, single point]
COc1ccccc1CNC(=O)CN1C(=O)CSc2ccc(S(=O)(=O)N3CCCC3)cc21 | – | inconclusive [inhibitor, single point]
OC(c1cccc(Cl)c1)c1ncc(-c2cccc3ccccc23)[nH]1 (configuration not stated) | – | active: 20.6 µM
Cc1ccc(-c2noc(CNC(=O)c3ccc(C(C)(C)C)cc3)n2)cc1 | – | inconclusive [inhibitor, partial curve]
COC(=O)c1cc2oc3ccccc3c2n1CC(=O)Nc1ccc(OC)c(OC)c1OC | – | inconclusive [inhibitor, partial curve, poor fit]
O=C(Nc1ccccc1C(=O)Nc1nnc(C(F)(F)F)s1)c1ccccc1 | – | active: 2.91 µM
O=C(c1ccc(Br)o1)N1CCN(C23CC4CC(CC(C4)C2)C3)CC1 | – | inconclusive [inhibitor, partial curve]
CCOC(=O)c1c(NC(=O)CSC2=NN3CCCC(=O)N=C3S2)sc2c1CCCCC2 | – | active: 20.6 µM
CC(=O)Nc1cccc(NC(=O)c2cc(-c3cccnc3)nc3ccc(Br)cc23)c1 | – | active: 17.8 µM
COc1ccc(Cn2c(CCCO)nc3ccccc32)cc1OC | inactive: 1.09% | –
CC(C)OCCCNC(=O)c1cc(S(=O)(=O)N2CCc3ccccc32)cn1C | inactive: -3.15% | –
O=C(CCCCn1c(=O)c2ccccc2n(Cc2ccccc2F)c1=O)NC1CCN(Cc2ccccc2)CC1 | – | inconclusive [inhibitor, single point]
CCCCCCCNC(=O)C1(CC2CC(c3cccc(Br)c3)=NO2)CCN(C(=O)OC(C)(C)C)CC1 (configuration not stated) | – | inconclusive [inhibitor, single point]
COC(=O)c1c(C)nc2ccccc2c1C(=O)O | inactive: 13.5% | –
CSc1ncnc2c1ncn2CCCNCC(C)c1ccccc1 (configuration not stated) | inactive: 1.45% | –
CCCc1cc(NCc2ccccn2)n2c(nc3ccccc32)c1C#N | – | inconclusive [inhibitor, single point]
Cc1cc(C)cc(NC(=O)c2nnn(Cc3cc(C)ccc3C)c2N)c1 | – | active: 20.6 µM
COCc1cc(C)n(CC(=O)Nc2ccc(NC(C)=O)cc2)c(=O)c1C#N | inactive: 3.83% | –
CCN(CC)C(=O)Cn1cc(SCC(=O)Nc2cccc(C)c2)c2ccccc21 | – | inconclusive [inhibitor, single point]
CC(C)(C)c1ccc(CSc2ccc(S(=O)(=O)N3CCOCC3)cn2)cc1 | – | inconclusive [inhibitor, single point]
